115 sequences from the BET-seq Pho4 binding data (Le et al. 2018) can be followed below.

The other results are listed elsewhere or left out. Values were computed here from the reads of four pooled replicates and scatter widely.

For this test, the target named is T1, Pho4 (S. cerevisiae) (UniProt P07270).
T1 sequence: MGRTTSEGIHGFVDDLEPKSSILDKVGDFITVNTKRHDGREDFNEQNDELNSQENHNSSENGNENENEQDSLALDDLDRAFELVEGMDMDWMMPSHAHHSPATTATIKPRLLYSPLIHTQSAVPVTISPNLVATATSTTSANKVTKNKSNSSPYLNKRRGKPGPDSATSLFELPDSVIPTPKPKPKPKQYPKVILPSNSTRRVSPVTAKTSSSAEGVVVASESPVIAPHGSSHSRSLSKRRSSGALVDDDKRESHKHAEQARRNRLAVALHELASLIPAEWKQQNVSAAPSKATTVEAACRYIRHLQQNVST
In words: relative binding free energy (BET-seq); higher = weaker binding. The note with it: reference: library average.
In the case of AATAGCACGTGTATGT, the “relative binding free energy” value was -0.16 kcal/mol. With TCTGACACGTGTTGGT the figure was 0.02 kcal/mol; with GTAATCACGTGGTAAG, 0.16 kcal/mol; with TGTCACACGTGGGGTA, -0.13 kcal/mol. With AGGCACACGTGCGTGG the figure was -0.04 kcal/mol.

As to ATACGCACGTGGATGG, the “relative binding free energy” value is -0.16 kcal/mol. Consider GAGCTCACGTGGGGTA, for which the “relative binding free energy” value was -0.03 kcal/mol. Turning to AGGGTCACGTGATCGG, the “relative binding free energy” value is 0.14 kcal/mol.

On to GGGTGCACGTGCGTTG, for which the “relative binding free energy” value is -0.06 kcal/mol. The value for GTAGGCACGTGTGGCG was -0.18 kcal/mol; that for GGGGTCACGTGGAGAG was 0.27 kcal/mol; that for ATGGTCACGTGTCGAT was 0.14 kcal/mol. ATTTACACGTGATATA: the “relative binding free energy” value came out at 0.12 kcal/mol. With GGTAGCACGTGGTTCT the figure was 0.05 kcal/mol; with AGTAGCACGTGCGTCG, -0.05 kcal/mol; with GCAAGCACGTGGTTGT, -0.18 kcal/mol. CGCTTCACGTGTAGGG: the “relative binding free energy” value turned out to be 0.22 kcal/mol. The value for GTCGTCACGTGTGAGT was 0.23 kcal/mol. With ATGGTCACGTGATTAA the figure was 0.21 kcal/mol.

Take GTAGGCACGTGGCTTG: the “relative binding free energy” value is -0.22 kcal/mol. TTATGCACGTGTCTAG: the “relative binding free energy” value was -0.03 kcal/mol.

Take AGAAACACGTGTCGTG: the “relative binding free energy” value was 0.07 kcal/mol. The value for TCCGGCACGTGGCGGT was 0.05 kcal/mol. With ATAGGCACGTGTTTTG, the “relative binding free energy” value was -0.22 kcal/mol. The value for GGTGCCACGTGCTTGG was -0.23 kcal/mol; that for TTCGGCACGTGGAATG was -0.07 kcal/mol.

Consider CTTAGCACGTGGGGTT, for which the “relative binding free energy” value is -0.23 kcal/mol. With TATTACACGTGAGTTG the figure was 0.27 kcal/mol; with ATCGTCACGTGGGGTT, 0.03 kcal/mol; with ATTTGCACGTGTGCTG, 0.05 kcal/mol. Regarding CGTATCACGTGATGTT, the “relative binding free energy” value came out at 0.06 kcal/mol.

Take TATTTCACGTGATATT: the “relative binding free energy” value was 0.14 kcal/mol.

CTAGGCACGTGTAGGA: the “relative binding free energy” value was 0 kcal/mol. The value for ATGATCACGTGATGAG was 0.3 kcal/mol; that for TTGTGCACGTGCCGTG was -0.16 kcal/mol. Take CGGGGCACGTGATTGG: the “relative binding free energy” value was -0.09 kcal/mol.

In the case of TTTGTCACGTGGAAAC, the “relative binding free energy” value came out at 0.3 kcal/mol.

Consider GGGAACACGTGAGTGG, for which the “relative binding free energy” value was 0.11 kcal/mol. As to GGATGCACGTGGATAT, the “relative binding free energy” value amounted to 0.14 kcal/mol. With ATTCGCACGTGGGGTA, the “relative binding free energy” value was -0.28 kcal/mol. With TTGTACACGTGAGAGT the figure was 0.3 kcal/mol; with AAGGTCACGTGATTTG, 0.2 kcal/mol; with CTGTGCACGTGTGGAG, -0.08 kcal/mol. For TCTTTCACGTGGACGT, the “relative binding free energy” value worked out at 0.39 kcal/mol.

On to AGCTTCACGTGTGTGG, for which the “relative binding free energy” value stood at 0.18 kcal/mol. For the sequence ATGGCCACGTGAGTTA, the “relative binding free energy” value is 0.09 kcal/mol. Turning to TGGGGCACGTGTGTAC, the “relative binding free energy” value is -0.1 kcal/mol. As for ATGTACACGTGTTCTT, the “relative binding free energy” value stood at 0.22 kcal/mol. With TAGGGCACGTGGGCGG the figure was -0.2 kcal/mol; with GTCTTCACGTGCAGGT, 0.19 kcal/mol; with GGATCCACGTGGGGGA, -0.05 kcal/mol.

For the sequence GAGTTCACGTGCAGGT, the “relative binding free energy” value stood at 0.47 kcal/mol.

GTGGGCACGTGAACGG: the “relative binding free energy” value amounted to 0.12 kcal/mol.

For the sequence AAAAGCACGTGTTGGA, the “relative binding free energy” value was found to be 0.03 kcal/mol. With GGCTCCACGTGTGGGG the figure was 0.11 kcal/mol; with GGCTGCACGTGGAATG, 0.12 kcal/mol.

With CTCGTCACGTGGGAGT, the “relative binding free energy” value is 0.09 kcal/mol. With ATAAACACGTGTGTGG the figure was 0.01 kcal/mol; with ATATTCACGTGTATGG, 0.22 kcal/mol; with CTGTTCACGTGGTGTC, 0.17 kcal/mol. With GTATGCACGTGTTTAA, the “relative binding free energy” value was -0.15 kcal/mol. With TGTTGCACGTGGACAT the figure was -0.11 kcal/mol; with ACGCGCACGTGTGGTT, -0.06 kcal/mol.

Turning to GGGAACACGTGTAAGG, the “relative binding free energy” value stood at 0.19 kcal/mol. With CGAGTCACGTGATGGT the figure was 0.17 kcal/mol; with GTTTACACGTGATGGT, 0.31 kcal/mol; with TGGGACACGTGTTTGA, -0.05 kcal/mol. For the sequence TAACTCACGTGGTGGT, the “relative binding free energy” value came out at 0.1 kcal/mol. Consider TTGTACACGTGAGAAG, for which the “relative binding free energy” value came out at 0.19 kcal/mol. TGTTACACGTGAGGAT: the “relative binding free energy” value amounted to 0.22 kcal/mol. For TGTGGCACGTGAGTGA, the “relative binding free energy” value was 0.21 kcal/mol.

Consider ATATGCACGTGAGGGG, for which the “relative binding free energy” value came to 0.18 kcal/mol. For the sequence GCGTGCACGTGTAATG, the “relative binding free energy” value amounted to 0.01 kcal/mol. With GGTTTCACGTGTCGTG the figure was 0.33 kcal/mol; with GTACGCACGTGTGTAG, -0.16 kcal/mol.

In the case of TTACGCACGTGGGGGC, the “relative binding free energy” value is -0.31 kcal/mol. The value for CTATTCACGTGGAGGT was 0.1 kcal/mol; that for CGTGTCACGTGATAGG was 0.22 kcal/mol; that for GTTTACACGTGGGGCC was 0.08 kcal/mol. The value for GAATTCACGTGATGGG was 0.35 kcal/mol; that for TATCGCACGTGGTGTA was -0.4 kcal/mol; that for AGTTGCACGTGGAGCG was 0.05 kcal/mol. As to TAGGACACGTGGAGCG, the “relative binding free energy” value is 0 kcal/mol. The value for TGGCGCACGTGAATGT was 0.22 kcal/mol; that for AACGTCACGTGGGGGT was -0.08 kcal/mol.

Turning to TGTTTCACGTGTTGTT, the “relative binding free energy” value was 0.35 kcal/mol.

As for ACGTTCACGTGGTTTT, the “relative binding free energy” value turned out to be 0.16 kcal/mol. As to TGGATCACGTGGTGTT, the “relative binding free energy” value was 0.1 kcal/mol. Turning to AGGTGCACGTGCGGTC, the “relative binding free energy” value was -0.05 kcal/mol.

For the sequence ATGCGCACGTGGAGGT, the “relative binding free energy” value is -0.14 kcal/mol. Regarding GATTTCACGTGCTGAG, the “relative binding free energy” value was 0.53 kcal/mol.

For TGAATCACGTGAATGA, the “relative binding free energy” value is 0.39 kcal/mol. With CAGGACACGTGGGGAG, the “relative binding free energy” value is -0.16 kcal/mol. CAGTGCACGTGGTGAT: the “relative binding free energy” value is -0.11 kcal/mol. With GTCTACACGTGCGGTT the figure was 0.18 kcal/mol; with ATGGTCACGTGTGATA, 0.21 kcal/mol; with TTCTGCACGTGAATTG, 0.16 kcal/mol. With CGATCCACGTGGGGGT the figure was -0.17 kcal/mol. For the sequence ATGTACACGTGACGTT, the “relative binding free energy” value stood at 0.07 kcal/mol. The value for AATTACACGTGCGGGT was 0.12 kcal/mol. As to AGAGGCACGTGTGGAC, the “relative binding free energy” value was -0.11 kcal/mol. For TTAGTCACGTGACTGA, the “relative binding free energy” value is 0.22 kcal/mol. With AATATCACGTGAGGTC, the “relative binding free energy” value was found to be 0.35 kcal/mol. With CTCGACACGTGTGTGT the figure was 0.01 kcal/mol; with TTGCTCACGTGGGATG, 0.04 kcal/mol; with GCGGGCACGTGAGTCG, 0.09 kcal/mol.

With GTGCCCACGTGGGGGA, the “relative binding free energy” value is -0.31 kcal/mol.

For the sequence GTTAACACGTGTGTGT, the “relative binding free energy” value was found to be 0.07 kcal/mol.

As to TTTTTCACGTGAACAG, the “relative binding free energy” value was 0.34 kcal/mol. On to TTAGTCACGTGGTGCA, for which the “relative binding free energy” value is -0.09 kcal/mol. The value for ATGGACACGTGATTAG was 0.18 kcal/mol; that for CAGGTCACGTGTATTT was 0.2 kcal/mol.

Regarding AGTTGCACGTGAGTGG, the “relative binding free energy” value was determined as 0.25 kcal/mol. The value for AATTTCACGTGCTAGT was 0.13 kcal/mol; that for TGGGTCACGTGCTGGC was 0.04 kcal/mol.
